Assay results as given in PMC4336329 (PLoS ONE, 2015).
Out of some 310,000 compounds screened, about 2,200 (0.71%) showed an effect of 50% or more. Effects have a minus sign here. The list shows a part of the results.

Target: human ether-à-go-go-related gene (hERG) potassium channel (human, UniProt Q12809)
Test: primary screen, population patch clamp on CHO cells stably expressing hERG

Sequence of human ether-à-go-go-related gene (hERG) potassium channel (Q12809 whole entry, looked up): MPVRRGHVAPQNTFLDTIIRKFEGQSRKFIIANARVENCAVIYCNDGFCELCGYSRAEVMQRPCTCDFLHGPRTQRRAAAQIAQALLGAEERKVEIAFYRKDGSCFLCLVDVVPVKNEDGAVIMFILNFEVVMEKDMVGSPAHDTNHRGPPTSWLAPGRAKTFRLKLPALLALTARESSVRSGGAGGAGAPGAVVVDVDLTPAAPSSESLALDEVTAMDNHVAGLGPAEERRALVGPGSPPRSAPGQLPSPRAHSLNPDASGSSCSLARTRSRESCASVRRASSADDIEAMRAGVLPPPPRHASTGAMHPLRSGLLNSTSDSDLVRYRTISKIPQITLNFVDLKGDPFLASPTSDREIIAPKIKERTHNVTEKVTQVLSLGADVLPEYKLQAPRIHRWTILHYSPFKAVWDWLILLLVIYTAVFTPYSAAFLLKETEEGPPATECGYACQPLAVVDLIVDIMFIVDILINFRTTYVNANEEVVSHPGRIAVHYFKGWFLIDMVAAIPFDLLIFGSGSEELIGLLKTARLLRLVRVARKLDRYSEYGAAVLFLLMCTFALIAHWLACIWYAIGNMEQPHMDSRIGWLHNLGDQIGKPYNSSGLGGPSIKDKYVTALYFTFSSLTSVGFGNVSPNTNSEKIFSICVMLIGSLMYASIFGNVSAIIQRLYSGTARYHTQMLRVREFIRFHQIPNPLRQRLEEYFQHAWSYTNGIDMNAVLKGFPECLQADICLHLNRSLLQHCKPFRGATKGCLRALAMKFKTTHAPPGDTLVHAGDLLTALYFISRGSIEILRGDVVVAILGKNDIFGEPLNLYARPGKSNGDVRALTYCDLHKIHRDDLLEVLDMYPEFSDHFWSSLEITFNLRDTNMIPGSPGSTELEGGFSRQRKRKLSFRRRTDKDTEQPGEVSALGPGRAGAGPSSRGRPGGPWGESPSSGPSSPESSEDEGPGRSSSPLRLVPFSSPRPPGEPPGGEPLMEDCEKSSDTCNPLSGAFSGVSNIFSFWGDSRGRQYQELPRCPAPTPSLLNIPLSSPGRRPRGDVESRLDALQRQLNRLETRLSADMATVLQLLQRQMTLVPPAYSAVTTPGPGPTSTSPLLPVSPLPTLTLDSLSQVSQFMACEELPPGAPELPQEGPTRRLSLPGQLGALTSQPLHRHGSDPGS

| Compound | hERG current change (%, negative = inhibition) at 1uM |
| --- | --- |
| O=[N+]([O-])c1cc(S(=O)(=O)N2CCCC2)ccc1N/N=C1/CCCc2ccccc21 | 13.3% |
| CC1=NN(c2ccccc2)C(=O)/C1=C/c1cccc(C)c1 | 0.505% |
| Cc1cc(C)n2nc(C(=O)OCC(=O)NCc3ccccc3)nc2n1 | 28.4% |
| Cc1ccc(CN2CCSc3ccc(C(=O)NCc4ccco4)cc32)cc1 | 1.69% |
| COc1ccccc1NS(=O)(=O)c1cccc(C(=O)N/N=C/c2c(CO)cnc(C)c2O)c1 | 12.2% |
| COc1ccc(Nc2ccccc2)c(C)c1 | 7.05% |
| C=CCNC(=O)COC(=O)COc1ccc(Cl)cc1C | 0.409% |
| O=C(CSc1nc2cc3c(cc2c(=O)n1CCC1=CCCCC1)OCO3)NCc1ccco1 | 15.4% |
| O=C(CCCOc1ccccc1)N1CCN(S(=O)(=O)c2cccs2)CC1 | 3.59% |
| COc1ccccc1C(OC(=O)c1ccco1)C(=O)NCc1ccc(F)cc1 (stereo not shown) | 9.13% |
| C/C(CC(=O)Nc1cccc(Cl)c1C)=N\NC(=O)C(=O)NCC(C)C | -0.612% |
| COc1ccc(CCc2nc(C)ccc2O)cc1.Cl | 11.4% |
| c1ccc2c(c1)nc(NCc1ccc3c(c1)OCO3)n2CCN1CCOCC1 | -40.7% |
| O=C(NCc1cccs1)C1CCC(CNS(=O)(=O)c2cccc3nsnc23)CC1 (stereo not shown) | 4.69% |
| O=C(CNC(=O)Cc1ccccc1)NCC(=O)OCc1ccc(C(=O)c2ccccc2)cc1 | 0.84% |
| CCN(CC)CCN1C(=O)c2oc3ccccc3c(=O)c2C1c1ccc(C)cc1 (stereo not shown) | -6.49% |
| CN1CCN(S(=O)(=O)c2cccc(C(=O)NCCOc3ccccc3F)c2)CC1 | -4.66% |
| COc1ccccc1CN1CC(C(=O)N2CCC(OC)CC2)CCC1=O (stereo not shown) | 13.7% |
| Cc1ccc(OC(C)C(=O)N2CCc3ccccc32)cc1 (stereo not shown) | 14.4% |
| CCc1cc(C(=O)N2CCCC(CNC(=O)c3ccc(-c4ccccc4)cc3)C2)no1 (stereo not shown) | -15.5% |
| Cn1cc(P(=S)(N2CCOCC2)N2CCOCC2)cc1P(=S)(N1CCOCC1)N1CCOCC1 | 17.8% |
| CC(=O)Cc1cc2cc([N+](=O)[O-])ccc2oc1=O | 10.9% |

| Compound | hERG current change (%, negative = inhibition) at 1uM |
| --- | --- |
| CNC(=S)N(CCc1c(C)[nH]c2ccc(Cl)cc12)Cc1cccs1 | -7.85% |
| CCCSc1nnc(NC(=O)c2ccco2)s1 | 8.4% |
| CCN(c1cc(C)cc(C)c1)S(=O)(=O)c1nnc(NC(=O)C(C)C)s1 | 11.4% |
| CCOCc1nnc(NC(=O)c2ccc(NC(C)=O)cc2)s1 | 15.1% |
| CCOC(=O)c1ccc(NC(=O)c2nc[nH]c2C(=O)NCc2ccccc2)cc1 | 5.51% |
| CCOC(=O)c1c(NC(=O)COc2ccc3ccc(=O)oc3c2)sc(C(=O)N(C)C)c1C | 9.71% |
| O=C(C[n+]1cc(-c2ccc(Cl)cc2)n2c1CCCCC2)c1ccccc1.[Br-] | -2.53% |
| Cn1c(Sc2ccccc2Cl)c(C=O)c2ccccc21 | -4.16% |
| CCOC(=O)N1CCN(CCC(=O)Nc2cccc(Br)c2)CC1.Cl | -0.143% |
| Nc1c(N(CCC2=CCCCC2)C(=O)c2ccc([N+](=O)[O-])o2)c(=O)[nH]c(=O)n1Cc1ccccc1 | 8.72% |
| Cc1ccc(S(=O)(=O)N(C)CC(=O)Nc2ccccc2)cc1 | -4.62% |
| CN(C(=O)CSc1nnc(-c2ccccc2F)o1)c1ccccc1 | 10.5% |
| CCOc1ccc(NC(=O)C2CCC(C)(C(=O)O)C2(C)C)cc1 (stereo not shown) | 6.2% |
| CCOc1ccc(-n2c(SCC(=O)Nc3ccc(OC)cc3)nc3c(c2=O)SCC3)cc1 | 12% |
| CCC(C(=O)N1CCOCC1)n1c2ccccc2c2nc(=O)cc(C)n21 (stereo not shown) | 13.4% |
| CC(C)Oc1cc2oc(=O)c3c(c2cc1Cl)CCC3 | 16.9% |
| COc1ccccc1OCC(=O)N1CCCCCCC1 | 14.5% |
| COCCCNC(=O)C1C2C=CC3(CN(Cc4ccc(C)cc4)C(=O)C13)O2 (stereo not shown) | 10.2% |
| Cn1c(-c2cc3c(C(F)(F)F)nn(C)c3s2)n[nH]c1=S | 15.1% |
| Cc1ccccc1NC(=O)Cc1nnc(SCC(=O)NC2CCCC2)n1C | 13.9% |
| CCOc1ccc2c(c1)C(c1cccs1)=NNC(c1cccnc1)=N2 | -14.1% |
| COC(=O)c1sccc1NC(=S)N1CCC(C)CC1 | 11.2% |

| Compound | hERG current change (%, negative = inhibition) at 1uM |
| --- | --- |
| Cc1cc(C)cc(N(CC(=O)NCc2ccc3c(c2)OCO3)C(=O)CCC(=O)Nc2ccccn2)c1 | 1.22% |
| O=C(O)CSc1c(-c2ccccc2)c2cc(Cl)ccc2[nH]c1=O | 4.15% |
| CCc1ccc2[nH]c(=O)c(CN(CCCN3CCOCC3)C(=O)Nc3ccc(Cl)cc3)cc2c1 | -1.28% |
| Cl.O=C(CN1CCOCC1)N1CCc2ccccc2C(c2ccccc2)C1 (stereo not shown) | 10.6% |
| Cc1cccc(OC(=O)c2sc3ncn(C)c(=O)c3c2C)c1 | 5.42% |
| CCOc1ccc(NC(=O)CCS(=O)(=O)c2ccc3c(c2)CCCN3C(C)=O)cc1 | 11.5% |
| CCOC(=O)C1=C(C)NC(C)=C(C(=O)OCC)C1C(=O)OCC(=O)N(C)C1CCS(=O)(=O)C1 (stereo not shown) | 8.28% |
| C/C=C(/C)C(=O)OC1c2c(ccc3ccc(=O)oc23)OC(C)(C)C1OC(=O)/C(C)=C\C (stereo not shown) | 12.6% |
| Nc1nc2ccccc2n1C(=O)CCc1ccccc1 | 12.7% |
| O=Cc1ccc(Oc2cccc(C(F)(F)F)c2)nc1 | 8.47% |
| COc1cccc(N2C(=O)CC(N3CCN(C(=O)c4ccco4)CC3)C2=O)c1 (stereo not shown) | 10.4% |
| O=[N+]([O-])c1cccc(S(=O)(=O)Nc2ccc(S(=O)(=O)Nc3nccs3)cc2)c1 | 13.1% |
| CCN1CCN(c2nc3c(C)cccn3c(=O)c2/C=C(\C#N)C(=O)NCCOC)CC1 | 10.2% |
| CCCCCc1nnc(NC(=O)NS(=O)(=O)c2ccc(C)cc2)s1 | 6.01% |
| O=C(Nc1cccc(NC(=O)c2cccs2)c1)c1ccc([N+](=O)[O-])o1 | 8.73% |
| CC(NC(=O)C1CCCN1S(=O)(=O)c1cccc2nsnc12)c1ccccc1 (stereo not shown) | 15.5% |
| CC(=O)c1sc(NC(=O)CN2C(=O)CCC2=O)nc1C | 8.98% |
| COc1ccc(NC(=O)Nc2ccc(Cc3ccncc3)cc2)cc1OC | 13.5% |
| Cc1cc(C(=O)C(=O)O)c(C)n1-c1ccc(Cl)c(Cl)c1 | 19.9% |
| Cc1ccc(N2C(=O)CC(=O)NC2=O)cc1 | -7.78% |
| Cc1cccc(/C=C2/S/C(=N/N=C3\CC4CCC3(C)C4(C)C)NC2=O)c1 (stereo not shown) | 0.701% |
| CC(=O)N1CCc2cc(S(=O)(=O)NCC(=O)NCc3ccc(Cl)cc3)ccc21 | 12.3% |

| Compound | hERG current change (%, negative = inhibition) at 1uM |
| --- | --- |
| COc1cc(/C=C/C(=O)c2ccc3c(c2)OCCO3)cc(OC)c1OC | 10.8% |
| O=C(Cn1cnc2c(cnn2-c2ccc(Cl)cc2)c1=O)N1CCN(c2ccccc2)CC1 | 6.64% |
| O=C(COc1ccccc1)Nc1nnc(C23CC4CC(CC(C4)C2)C3)s1 | 18.9% |
| C=CCNC(=O)c1ccc(OC)cc1 | 12.6% |
| N#CC1=C(SCc2ccccc2)NC(=O)CC1c1ccco1 (stereo not shown) | 11.2% |
| COc1ccc(CN2CCN(S(=O)(=O)c3ccc(C)cc3)CC2)cc1Br | -1.22% |
| CCC(CC)C(=O)c1c[nH]c(C(=O)N2CCN(c3ccccc3)CC2)c1 | 4.2% |
| COc1ccc(C2OC(=O)CC2C(=O)NCc2ccccc2Cl)cc1OC (stereo not shown) | 5.42% |
| Cl.O=C(CN1CCC(n2nnc3cc(F)ccc32)CC1)NCc1ccco1 | -11.6% |
| CCCCc1nc(NCCN)c(C#N)c2c1CSC(C)(C)C2 | 5.4% |
| O=C1/C(=C/c2ccc(O)cc2)CCc2ccc([N+](=O)[O-])cc21 | 9.86% |
| O=C(NCCc1nnc2ccc(NCC3CCCO3)nn12)c1ccccc1 (stereo not shown) | -7.27% |
| Cn1nccc1C(=O)N1CCN(c2ccccc2Cl)CC1 | 3.16% |
| COc1cc(OC)c(C2C(C(=O)N3CCOCC3)=C(C)NC3=C2C(=O)CC(C)(C)C3)cc1OC (stereo not shown) | 16.6% |
| CN1CN=C(NS(=O)(=O)c2ccc([N+](=O)[O-])cc2)NC1 | -2.68% |
| Cn1c(N)c(C(=O)COC(=O)/C=C/c2cccc(Br)c2)c(=O)n(C)c1=O | 9.1% |
| CCCC(=O)Nc1ccc2nc(C)n(Cc3ccccc3Cl)c(=O)c2c1 | 12.5% |
| COC(=O)C1=C(O)CSC1=Nc1ccc(C)cc1 | 7.6% |
| Cn1c(C(=O)N2CCOCC2)cnc1Sc1ncc(C(F)(F)F)cc1Cl | 4.99% |
| CCOC(=O)/C=C1\Nc2ccccc2OC1=O | 10.1% |
| Cc1cccc(NC(=O)c2cc(-c3cccnc3)nc3c(C)cccc23)n1 | 3.78% |
| CCOc1cc(/C=C/c2nc3ccccc3c(=O)[nH]2)cc(Br)c1OC | 12.9% |
